Results reported in paper PMC4336329 (PLoS ONE, 2015).
In all, about 310,000 compounds went through this assay and about 14,000 (4.5%) showed an effect of 50% or more. The effect is printed as a negative number. The list shows a part of the results.

Molecular target: human ether-à-go-go-related gene (hERG) potassium channel (human, UniProt Q12809)
Experiment: primary screen, population patch clamp on CHO cells stably expressing hERG
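Also: peak tail current of the secondary pulse compared with the same well before compound.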

Chain of human ether-à-go-go-related gene (hERG) potassium channel (Q12809 whole entry, looked up): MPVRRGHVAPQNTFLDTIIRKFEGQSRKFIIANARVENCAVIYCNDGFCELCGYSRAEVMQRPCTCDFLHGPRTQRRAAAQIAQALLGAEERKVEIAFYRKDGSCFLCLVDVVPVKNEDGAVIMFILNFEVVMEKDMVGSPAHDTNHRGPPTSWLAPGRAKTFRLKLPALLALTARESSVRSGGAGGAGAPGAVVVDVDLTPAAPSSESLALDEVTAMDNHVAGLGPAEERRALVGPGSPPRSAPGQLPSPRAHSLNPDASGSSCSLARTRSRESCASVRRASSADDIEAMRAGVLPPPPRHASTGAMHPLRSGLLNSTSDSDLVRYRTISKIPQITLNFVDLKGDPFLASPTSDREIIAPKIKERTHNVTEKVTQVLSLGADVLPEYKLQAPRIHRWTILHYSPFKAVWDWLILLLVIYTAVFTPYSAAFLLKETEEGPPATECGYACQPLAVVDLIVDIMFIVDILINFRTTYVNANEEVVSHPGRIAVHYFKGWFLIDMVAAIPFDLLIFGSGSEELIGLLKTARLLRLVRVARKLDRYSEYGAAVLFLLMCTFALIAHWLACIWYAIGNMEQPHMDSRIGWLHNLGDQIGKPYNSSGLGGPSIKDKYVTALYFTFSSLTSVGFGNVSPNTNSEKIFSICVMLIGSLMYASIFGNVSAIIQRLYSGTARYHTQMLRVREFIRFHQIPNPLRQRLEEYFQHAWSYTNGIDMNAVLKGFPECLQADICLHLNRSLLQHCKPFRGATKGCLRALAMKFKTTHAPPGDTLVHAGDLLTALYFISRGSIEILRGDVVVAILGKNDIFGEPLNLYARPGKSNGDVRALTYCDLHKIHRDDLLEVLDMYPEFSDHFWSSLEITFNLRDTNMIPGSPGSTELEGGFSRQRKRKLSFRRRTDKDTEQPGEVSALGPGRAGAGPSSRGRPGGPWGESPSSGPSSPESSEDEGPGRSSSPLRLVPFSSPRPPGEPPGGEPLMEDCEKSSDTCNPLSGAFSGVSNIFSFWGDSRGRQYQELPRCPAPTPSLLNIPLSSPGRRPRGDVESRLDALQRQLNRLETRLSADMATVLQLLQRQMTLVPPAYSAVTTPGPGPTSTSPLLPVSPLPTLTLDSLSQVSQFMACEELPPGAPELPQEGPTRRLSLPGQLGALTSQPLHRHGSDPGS

| SMILES | hERG current change (%, negative = inhibition) at 10uM |
| --- | --- |
| CC1(C(=O)N2CCN(Cc3ccccc3Cl)CC2)CC1(Cl)Cl (stereo not drawn) | 1.51% |
| CCN(CC)C(=O)Oc1nnc(SC(C)C)n1-c1ccc(Cl)c(Cl)c1 | -7.2% |
| S=C(Nc1ccc(Oc2ccccc2)cc1)Nc1cccnc1 | -4.7% |
| Cc1ccc(C)c(OCC(=O)NNC(=O)C2CC2)c1 | -3.18% |
| CSc1nnc(C(C)(C)C)c(=O)n1/N=C/c1ccc(C(C)C)cc1 | 28.3% |
| O=C1CN(C(=O)COC(=O)c2ccc([N+](=O)[O-])o2)c2ccccc2N1 | 1.92% |
| CCn1cc(C(=O)Nc2cccc(C)c2)c(=O)c2ccc(C)nc21 | 19.5% |
| COC(=O)C1(C)CC1(c1ccccc1)c1ccccc1 (stereo not drawn) | -3.98% |
| COc1ccc(Br)cc1C1CC(=O)N2CN(Cc3ccccc3)CSC2=C1C#N (stereo not drawn) | 13.2% |
| COCCn1c(=O)[nH]c2cc(C(=O)Nc3cc(OC)c(OC)c(OC)c3)ccc2c1=O | 10.6% |
| N#Cc1c(-c2ccco2)cc(-c2ccc(F)cc2)nc1N | -2.08% |
| CC(C)CNC(=O)c1cccc(NC(=O)CSc2ccc(Cl)cc2)c1 | -5.39% |
| COC(=O)c1cn(CC(=O)NC2CCCCCC2)c2ccccc12 | -2.33% |
| CCCSc1ccc([C@@H]2[C@H]3C(=O)N(CC)C(=O)[C@H]3[C@]3(C(=O)OC)CCCCN23)cc1.O=C(O)C(F)(F)F | 2.18% |
| Cc1[nH]oc(=O)c1N=Nc1c(Cl)cccc1Cl | -1.98% |
| Cc1cc(C)cc(NC(=O)CCNC(=O)N2C[C@H]3C[C@@H](C2)c2cccc(=O)n2C3)c1 | 10.2% |
| COc1ccc(-c2cc(C(=O)Nc3sc4c(c3C#N)CCCC4)c3ccccc3n2)cc1OC | 14.3% |
| COc1ccc(CNC(=O)C/C(C)=N/NC(=O)COc2ccccc2)cc1 | -19.5% |
| N#Cc1ccsc1NC(=O)CCc1ccccc1 | -9.24% |
| COc1ccccc1NC(=O)COc1ccc(Br)cc1CNC1CCCC1 | -53.2% |
| Cc1cc(C)nc(/N=C(\N)Nc2ccc3c(c2)OCCO3)n1 | 6.67% |
| O=C(c1cc(C(=O)NCCc2ccccc2)c(=O)n(CCc2ccccc2)c1)c1cc(Cl)ccc1O | -8.43% |
| O=c1c2ccccc2nnn1COc1cccc(Cl)c1 | 2.08% |
| CC1(C)CC(=O)C2=C(C1)c1c(ccc3ccccc13)NC2c1ccc(Br)o1 (stereo not drawn) | 9.38% |
| C#CCn1c2ccccc2c2nc3ccccc3nc21 | 16.5% |
| Cc1cccc(NC(=O)c2cccc(OC(=S)N3CCOCC3)c2)c1C | 5.1% |
| Cc1ccc(N2C(=O)CC(Nc3ccc(Cl)c(S(=O)(=O)N(C)C)c3)C2=O)c(C)c1 (stereo not drawn) | -4.31% |

| SMILES | hERG current change (%, negative = inhibition) at 10uM |
| --- | --- |
| CN(C)c1cccc(N(C)C)c1CNC(=O)NC(=O)c1c(F)cccc1F | 18.4% |
| CCOC(=O)C(=CNc1cc(C)nn1C(C)(C)C)C(=O)OCC | -0.0655% |
| COc1ccc(NC(=O)NNC(=O)c2ccc3ccccc3c2O)c(OC)c1 | 3.97% |
| COc1ccccc1C1/C(=C(/O)c2ccc(C)cc2)C(=O)C(=O)N1Cc1ccco1 (stereo not drawn) | 2.75% |
| COc1ccc(C(=O)CSc2nc(C)cc(C)n2)cc1[N+](=O)[O-] | -6.17% |
| CCOC(=O)c1sc(NC(=O)C(C)Sc2nnc(N)s2)nc1C (stereo not drawn) | 14.5% |
| Cc1cc(S(=O)(=O)Nc2ccccc2C(=O)O)ccc1Cl | 23.4% |
| O=C(Cn1cnc2c(nnn2-c2ccccc2)c1=O)NCC1CCCO1 (stereo not drawn) | 15.1% |
| COc1ccc(CN(C)CC(=O)Nc2sc3c(c2C#N)CCC3)cc1OC | 3.85% |
| CCc1cccc(CC)c1NC(=O)CN1CC(C)SC1=NC1CCCCC1 (stereo not drawn) | 3.42% |
| Cc1ccc(S(=O)(=O)Oc2ccccc2N2C(=O)C3CC=CCC3C2=O)cc1 (stereo not drawn) | -4.06% |
| COc1ccc(C(=O)N2CCN(CCNC(=O)C(=O)Nc3ccc(F)cc3)CC2)cc1OC | -61.5% |
| CCOC(=O)c1ccccc1NC(=O)COc1coc(CN2CCc3ccccc32)cc1=O | -36% |
| CCCc1cc(=O)oc2cc(C)cc(OCc3nn[nH]n3)c12 | 13% |
| CCC(C)(C)NC(=S)Nc1ccccc1C | 13.4% |
| COc1ccc(N2CCN(C(=O)c3cc4cc(Cl)ccc4[nH]3)CC2)cc1 | 9.33% |
| COc1ccc2cc(C(=O)C3CCCN(C(=O)c4csnn4)C3)ccc2c1 (stereo not drawn) | -13.2% |
| CN(C)S(=O)(=O)c1ccc(C(=O)NCC[N+]2(C)CCCCCC2)o1.[I-] | 16.3% |
| CCCCCn1c(=O)c(C(=O)Nc2ccccc2Cl)c(O)c2ccccc21 | 14.9% |
| Cc1cc(C)n(CC(=O)N2CCCC(N3CCN(Cc4ccc5c(c4)OCO5)CC3)C2)n1 (stereo not drawn) | -14.2% |
| O=C1OCc2ccc(NC(=O)c3ccccc3C(=O)O)cc21 | 1.1% |
| O=[N+]([O-])c1cc([N+](=O)[O-])c2c(=Nc3ccccc3)n(-c3ccccc3)n(O)c2c1 | -14.3% |
| CCSc1nnc(NC(=O)CSc2nccn2-c2cccc(C)c2)s1 | -2.41% |
| CN(Cc1ccccc1)C(=O)c1nc2ccccn2c1CN1CCC(N2CCOCC2)CC1 | -16.6% |
| CCCN(CCC)CCNC(=O)c1cc2c(-c3ccc(Cl)cc3)nn(C)c2s1 | -65.6% |
| Cc1cc2oc(=O)c(CC(=O)NCCCN(C)C)c(C)c2c2occ(C(C)(C)C)c12 | -69.1% |
| O=C(CCC(=O)NNC(=O)c1ccc([N+](=O)[O-])cc1)NCc1ccccc1 | 10.9% |
